The record followed here is ChEMBL document CHEMBL5308541, “MAIP: An Open-Source Tool to Enrich High-Throughput Screening Output and Identify Novel, Druglike Molecules with Antimalarial Activity” (ACS Med Chem Lett, 2023).

The campaign covered roughly 150,000 compounds. About 540 (0.36%) showed an effect of 50% or more. Some of the results follow.

The experiment relates to Plasmodium falciparum. The experiment is described as follows: Primary screen in NF54 nanoGlo assay, in single point, at 2uM, 72h; a lower Z score goes with more inhibition. It is filed as functional, Erythrocyte. To be noted: timepoint 72 hour.
Turning to `Cc1[nH]c2ccccc2c1[C@@H](c1ccc(N(C)C)cc1)c1cc(C(C)(C)C)c(O)c(C(C)(C)C)c1`, the % Inhibition – broadly, the relative decrease from the control value, in per cent – is listed as -7% and the Z score was 1.29.
For `CC(CN1CCOCC1)Nc1cc(N2CCCC2CO)ncn1` (stereo unspecified), the “% Inhibition” value was -13% and the Z score came out at 2.29.
As to `Cc1cc(NC[C@H](O)COc2ccc(F)cc2)nc2ccccc12`, the “% Inhibition” value came out at 68% and the Z score is listed as -11.87.
In the case of `Cc1nc(N)sc1C(=O)N1CC[C@H](O)CC(C)(C)C1`, the “% Inhibition” value amounted to 3% and the Z score is reported as -0.66.
The like results for `O=C(c1ccnc(OC2CCCCC2)c1)N1CCC[C@H](CN2CCOCC2)C1` were, in that order, -5% and 0.72.
Regarding `CN1CCC(N2CCC(NC(=O)c3ccccc3-c3nc(C(C)(C)C)no3)CC2)CC1`, the “% Inhibition” value was -2% and the Z score was 0.34.
Turning to `CCOC(=O)c1[nH]c(C)c(CCC(=O)N2CCC[C@H](C(=O)NCCN3CCN(C)CC3)C2)c1C`, the “% Inhibition” value is -4% and the Z score was 0.75.
For the compound `Nc1ccc2c(NCCC3CCN(CC(F)(F)F)CC3)ncnc2n1`, the “% Inhibition” value is -11% and the Z score was 1.94.
Take `O=c1ccc(-c2cccnc2)nn1CC1CN(c2ncnc3[nH]ccc23)C1`: the “% Inhibition” value worked out at 5% and the Z score is -1.07.
Consider `Cc1nc(O)nc(C)c1CCC(=O)NC1(c2cc(F)cc(F)c2)CC1`, for which the “% Inhibition” value is -10% and the Z score is on record as 1.78.
The like results for `C[C@@H](CN1CCCCCC1)NCCN(C)CCO` were, in that order, -6% and 0.94.
For `Cc1cc(NC2CCN(C)CC2)cc(N2CCN(C(C)C)CC2)c1`, the “% Inhibition” value came out at 1% and the Z score is reported as -0.21.
As for `Cc1cc(NCCNC(=O)Cn2c(C)csc2=O)n(C)n1`, the “% Inhibition” value is on record as -2% and the Z score worked out at 0.5.
Turning to `CCOc1ccnc(N2CCCN(CCCc3nc4ccccc4o3)CC2)n1`, the “% Inhibition” value is recorded as 1% and the Z score is reported as -0.22.
As to `Cc1ncnc(OCC2CCN(c3ncnc4[nH]ccc34)CC2)c1C`, the “% Inhibition” value is -1% and the Z score is 0.19.
With `COc1ccc2occ(C(=O)N3CCC[C@H](c4ccnc(N)n4)C3)c2c1`, the “% Inhibition” value is on record as 3% and the Z score is given as -0.68.
As to `CC[C@]1(O)CCCN(CCn2cnnc2C)C1`, the “% Inhibition” value was -2% and the Z score was determined as 0.3.
Take `FC(F)(F)c1cccnc1OC[C@H]1CCCN(c2ncnc3cnccc23)C1`: the “% Inhibition” value was -10% and the Z score is 1.55.
As for `Cc1nc(Nc2ccc(NC(=O)c3c(-c4ccccc4Cl)noc3C)cc2)cc(-n2ccnc2)n1`, the “% Inhibition” value is listed as 4% and the Z score is given as -0.56.
Take `O=C(CC1CCNCC1F)Nc1ccc(Oc2ccnc3ccccc23)cc1` (stereo unspecified): the “% Inhibition” value turned out to be 25% and the Z score is -4.95.
The like results for `O=C(c1onc2c1CCCC2)N1CCN(CCO)C2CS(=O)(=O)CC21` (stereo unspecified) were, in that order, -6% and 1.27.
On to `CC(C)(C)OC(=O)NCCN1CCC(Nc2cccc(CO)c2)CC1`, for which the “% Inhibition” value is recorded as -11% and the Z score is 2.16.
Consider `Fc1ccc2c(c1)[C@@H](NC1CCC(Oc3cnccn3)CC1)CC2` (stereo partly specified), for which the “% Inhibition” value is recorded as -3% and the Z score was 0.64.
As to `COc1nc(N2CCCN(c3ccnc(C)c3)CC2)ncc1F`, the “% Inhibition” value is on record as 6% and the Z score was -0.99.
The like results for `CCS(=O)(=O)C1CN(C2CCCC2)C1` were, in that order, -5% and 1.01.
For `CNc1nc(C)cc(-c2cccc(C(=O)N3CCC4(CCNCC4)C3)c2)n1`, the “% Inhibition” value was found to be 5% and the Z score was -1.01.
Take `COc1ccc2[nH]c(CNC(=O)c3cccc(-c4cn[nH]c4)c3)cc2c1`: the “% Inhibition” value is recorded as -7% and the Z score was found to be 1.53.
With `Cc1cnccc1NCCNC(=O)CN(C)C1CCNCC1`, the “% Inhibition” value is -6% and the Z score was determined as 1.03.
The like results for `O=C(c1ccc(-c2cnc3[nH]ccc3c2)cc1)N1CCC2CNCC21` (stereo unspecified) were, in that order, 1% and -0.2.
Consider `COc1ccccc1N1CCN(C(=O)[C@]2(C)CCCO2)CC1=O`, for which the “% Inhibition” value is given as -13% and the Z score is given as 2.32.
Turning to `CN1CCN(CCOc2ccccc2NC2CCCC2)CC1`, the “% Inhibition” value is reported as -14% and the Z score is recorded as 2.37.
As for `N#Cc1ccc(-c2cc(-c3ccc(Nc4ccnc5cc(C(F)(F)F)ccc45)cc3)[nH]c(=O)c2C#N)cc1`, the “% Inhibition” value amounted to 1% and the Z score is recorded as -0.21.
Consider `Cc1noc(-c2ccnc(N3CCO[C@H](c4ccccc4)C3)c2)n1`, for which the “% Inhibition” value stood at 0% and the Z score is given as 0.07.
The corresponding values for `CCc1cc(NC2CCN(CC(F)F)CC2)nc(-c2ccncc2)n1` are 4% and -0.75.
For `Cc1c(-c2nc3ccc(Cl)cc3[nH]2)c2ccccc2n1CC(N)=O`, the “% Inhibition” value is listed as -1% and the Z score was 0.26.
For `Cc1cnc(N2CCCN(C)CC2)nc1N1CCCN(C)CC1`, the “% Inhibition” value is given as 17% and the Z score is -2.92.
In the case of `CN1CC(=O)N2C[C@@H](Nc3ncc(F)c(N(C)C)n3)C[C@H]2C1=O`, the “% Inhibition” value stood at 9% and the Z score is -1.66.
Take `COc1cccc(CNCCCNc2ccc(C)cn2)c1OCCCN(C)C`: the “% Inhibition” value was determined as 5% and the Z score is -0.86.
Turning to `NCCc1cccc(CN2CCC[C@H](CN3CCCCC3)C2)c1`, the “% Inhibition” value came out at 3% and the Z score is given as -0.52.
Turning to `CN1CCC(NC(=O)N2CCCC(Nc3ccc(N(C)C)nc3)CC2)C1=O` (stereo unspecified), the “% Inhibition” value is -4% and the Z score is 0.8.
The corresponding values for `c1ccc(-c2ccnc(CCn3cnc(-c4ccccc4)c3-c3c[nH]cn3)n2)cc1` are 0% and 0.
Consider `Cc1nc(Nc2nc3ccccc3o2)nc2c1C(=O)CC(C)(C)C2`, for which the “% Inhibition” value is on record as 0% and the Z score is given as -0.03.
The like results for `CN1CCC(N2CCN(Cc3c(Cl)cncc3Cl)CC2)CC1` were, in that order, 1% and -0.21.
Consider `O=C(Nc1ccc(N2CCC(NC[C@@H](c3ccc(F)cc3)N3CCCC3)CC2)cc1)c1cnccn1`, for which the “% Inhibition” value is -3% and the Z score is given as 0.59.
Turning to `COc1ccc(-c2ccnc3c(-c4ccc(F)cc4)cnn23)c(O)c1`, the “% Inhibition” value stood at 22% and the Z score was -3.81.
For the compound `COc1ccccc1-c1noc(C2CCN(Cc3ccc4cn[nH]c4c3)CC2)n1`, the “% Inhibition” value is reported as -6% and the Z score worked out at 0.96.
Regarding `CN1CCN(CCNc2cncc(-n3cccn3)n2)[C@H](c2ccccc2)C1`, the “% Inhibition” value is given as 17% and the Z score was -2.57.
As to `COCCN1CCC(c2nccn2-c2cnc3ccccc3c2)CC1`, the “% Inhibition” value is listed as -14% and the Z score was determined as 2.4.
Take `FC(F)(F)c1ccc(-c2c(-c3ccccc3)ncn2Cc2ncn[nH]2)cc1`: the “% Inhibition” value is given as 31% and the Z score is -5.37.
Turning to `Cc1ccc2nc(OCc3ccccc3Cl)c(CN3CCC(N4CCC[C@H](CO)C4)CC3)cc2c1`, the “% Inhibition” value came to 3% and the Z score is -0.47.
The like results for `Clc1cccc(COc2cccc(-c3nccc4c3[nH]c3ccccc34)c2)c1` were, in that order, -8% and 1.34.
As to `O=C(CC1(C(=O)O)CCC1)N[C@@H]1CCOc2c(F)cccc21`, the “% Inhibition” value was -6% and the Z score was 0.97.
In the case of `Cc1[nH]c2c(F)cccc2c1CC(=O)N1CCc2[nH]c(-c3cn[nH]c3)nc2C1`, the “% Inhibition” value turned out to be 1% and the Z score is -0.18.
